In all, about 330,000 compounds went through this assay and about 4,200 (1.3%) were called active. Inconclusive means that the source gave no clear call. Such entries were picked first, then a sample of the others. Calls come from the whole dose curve; as a rule, active = well fitted activation curve with a large enough effect; inconclusive = small, poorly fitted or top-dose-only effect; inactive = no such curve, though single readings can be large or run the other way. Where the call is inconclusive, the potency comes from a doubtful curve fit.
Assay: qHTS screen for small molecules that induce genotoxicity in human embryonic kidney (HEK293T) cells expressing luciferase-tagged ELG1; note: nearly all actives have a fitted effect of over 60% in size; for activity change, positive = activation: % of control where 0% means no effect
Conditions: HEK293T ELG1-luciferase reporter, luminescence, 16 h; series mostly up to 46 µM; activity change, positive = activation: at the top concentration
In short: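 HEK293T cells expressing luciferase-tagged ELG1 were treated with compound or DMSO for 16 hr at 37°C. Luciferase activity was then read after 30 min with ONE-Glo at room temperature; rising signal flags genetic stress.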
With CCOc1cc(/C=C/c2cc(C(=O)O)c3ccccc3n2)ccc1OC the Potency was inconclusive: 23.1 µM [activator, partial curve, poor fit]. In the case of COc1cc(/C=C/C(=O)c2ccc([N+](=O)[O-])o2)ccc1O, the Potency was inconclusive: 6.51 µM [activator, single point]. In the case of Cc1nc2c(sc3nc4c(cc32)COC(C)(C)C4)c(=O)n1CC(=O)NCc1ccco1, the Potency was inconclusive: 18.4 µM [activator, partial curve]. For Cc1[nH]n(-c2cccc(Cl)c2)c(=O)c1C=NCc1ccco1, the Potency was active: 9.2 µM. In the case of Clc1ccc(-c2cc(-c3ccccc3)on2)cc1, the Potency was inconclusive: 2.59 µM [activator, full curve]. For O=C(NCc1cccc(Cl)c1)c1cc(COc2ccc3ncccc3c2)on1, the “activity change, positive = activation” value was inactive: -10%. In the case of Cc1cc2nc(-c3ccc(SCC(=O)Nc4ccc5c(c4)OCCO5)nc3)[nH]c2cc1C, the Potency was inconclusive: 2.59 µM [activator, full curve, poor fit]. For O=C(Cn1c(=S)nc2ccccn21)N1CCc2ccccc2C1, the Potency was active: 20.6 µM. For Cc1ccc(C)c(OCCC(=O)NCCc2ccc(Cl)cc2)c1, the “activity change, positive = activation” value was inactive: -3.91%. In the case of CC1C(=O)N2CCCc3cc(NC(=O)C(=O)NCCc4ccc(F)cc4)cc1c32 (stereo unspecified), the Potency was inconclusive: 14.6 µM [activator, partial curve, poor fit]. With CCn1nc(C)c(/C=N/NC(=O)c2ccoc2C)c1C the Potency was inconclusive: 20.6 µM [activator, partial curve, poor fit]. In the case of Cc1ccc(NC(=O)COC(=O)CCc2ccc(S(=O)(=O)N3CCOCC3)cc2)cc1F, the “activity change, positive = activation” value was inactive: 2.51%. With CC(=O)c1sc(NCc2ccccc2)nc1C the “activity change, positive = activation” value was inactive: 10.2%. With CC(C)(C)c1nnc(NC(=S)Nc2ccccc2)s1 the Potency was inconclusive: 9.2 µM [activator, partial curve]. With COc1ccc(OC)c(NC(=O)C2CCC(CNc3c(N4CCC(C)CC4)c(=O)c3=O)CC2)c1 (stereo unspecified) the “activity change, positive = activation” value was inactive: 27.5%. With CC(C)[C@H]1C(=O)Nc2ccccc2N1C(=O)N[C@@H](Cc1ccccc1)C(=O)N[C@H](C(=O)O)c1ccccc1 the “activity change, positive = activation” value was inactive: 2.79%. In the case of O=C(OCC(=O)N1CCCC1)c1cccs1, the Potency was inconclusive: 11.2 µM [activator, partial curve]. In the case of CNc1ccccc1C(=O)OC(C)C(=O)Nc1ccc(Cl)cn1 (stereo unspecified), the Potency was inconclusive: 5.8 µM [activator, single point]. For Cc1ccc(NC(=O)CSc2nc(=O)n(CCCN3CCOCC3)c3c2CCCC3)c(C)c1, the “activity change, positive = activation” value was inactive: 1.19%. In the case of O=C(/C=C/Nc1ccc(Nc2ccccc2)cc1)c1cccs1, the Potency was inconclusive: 4.61 µM [activator, single point]. With CCOC(=O)c1c(C)[nH]c(C)c1C(=O)COC(=O)c1ccc(S(=O)(=O)C(F)F)cc1 the “activity change, positive = activation” value was inactive: -0.457%. In the case of Nc1cccc2nc3ccccc3cc12, the Potency was inconclusive: 6.51 µM [activator, partial curve, poor fit]. In the case of Cc1ccc(C(=O)Nc2nnc(-c3cccs3)s2)cc1C, the Potency was active: 8.2 µM. For Cc1cc(=O)[nH]c(SCc2nc3ncccn3c2Br)n1, the Potency was inconclusive: 20.6 µM [activator, partial curve, poor fit]. With CCOc1ccc2nc(N3CCCC(C(=O)NCCCN4C(C)CCCC4C)C3)sc2c1 (stereo unspecified) the Potency was inconclusive: 18.3 µM [activator, partial curve, poor fit]. In the case of COc1cc(C(=O)OCC#N)ccc1OCc1c(C)noc1C, the Potency was inconclusive: 20.6 µM [activator, partial curve, poor fit]. With CC(=NNC(=O)c1cccc(S(=O)(=O)N2CCOCC2)c1)c1ccccc1 the Potency was inconclusive: 18.3 µM [activator, partial curve, poor fit]. With COc1cc(/C=N/N2C(C)CCCC2C)cc(Br)c1O (stereo unspecified) the “activity change, positive = activation” value was inactive: -4.31%. With CC(=O)N1CCc2cc(N=NC3=C(O)CC(C)(C)CC3=O)ccc21 the Potency was inconclusive: 6.51 µM [activator, single point]. In the case of Cc1cc(C)c(NC(=O)C2CC(=O)N(C3CCCC3)C2)c(C)c1 (stereo unspecified), the “activity change, positive = activation” value was inactive: 1.69%. In the case of Cc1ccc(C(=O)COC(=O)c2cc(=O)[nH]c3ccccc23)cc1, the Potency was inconclusive: 20.6 µM [activator, single point]. With Cc1nc2c3cnn(-c4ccc(C)c(C)c4)c3ncn2n1 the Potency was inconclusive: 2.06 µM [activator, full curve]. With Cc1cc(C)cc(OC(=O)CS(=O)c2ccc(C(F)(F)F)cc2[N+](=O)[O-])c1 (stereo unspecified) the Potency was inconclusive: 23.1 µM [activator, single point]. In the case of Cc1ccc(Nc2nc(C3CC3)cs2)cc1, the Potency was active: 8.2 µM. With BrC(=C\c1ccccc1)/C=N/N1CCN(c2ccccn2)CC1 the Potency was inconclusive: 29.1 µM [activator, single point]. In the case of COC(=O)c1cc2ccc(OC)cc2c2cc(OC)c(OC)cc12, the “activity change, positive = activation” value was inactive: -5.84%. In the case of CN1C(=O)C2(OCC(CO)([N+](=O)[O-])CO2)c2ccccc21 (stereo unspecified), the Potency was inconclusive: 20.6 µM [activator, partial curve, poor fit]. For O=C(OCC(=O)N1CCOCC1)c1ccc2ccccc2c1O, the Potency was inconclusive: 18.3 µM [activator, partial curve]. For CCCCN1C(=O)C(=O)c2cc(Cl)ccc21, the Potency was inconclusive: 23.1 µM [activator, partial curve, poor fit]. For O=C(NC1CCCCCCC1)NC1CCCCC1, the Potency was inconclusive: 20.6 µM [activator, partial curve, poor fit]. For Cc1cccc(/C=C2\CCC(=C3SCCCS3)C2=O)c1, the Potency was inconclusive: 0.517 µM [activator, partial curve, poor fit]. In the case of O=C(Nc1cc(S(=O)(=O)N2CCOCC2)ccc1Cl)c1ccc(=O)[nH]c1, the “activity change, positive = activation” value was inactive: 4.67%. For O=C(NCc1ccccc1F)C1CCCN1C(=O)Nc1ccc(Cl)cc1 (stereo unspecified), the “activity change, positive = activation” value was inactive: -3.41%. In the case of CN(C)/C=C(\C#N)C(=O)Nc1ccc(F)cc1, the Potency was inconclusive: 14.6 µM [activator, partial curve, poor fit]. In the case of Cc1cc(OCC(=O)N[C@@H](Cc2ccccc2)c2nc3ccccc3[nH]2)ccc1Cl, the “activity change, positive = activation” value was inactive: 6.9%. In the case of O=C(NCC(=O)N1CCc2ccccc2C1)c1ccccc1Cl, the Potency was inconclusive: 23.1 µM [activator, partial curve, poor fit].

From PubChem BioAssay AID504466 (National Center for Advancing Translational Sciences (NCATS), 2011)
Potency is the fitted concentration of half-maximal effect; tags give direction and shape of the fitted curve.
